# According to article PMC11164869:
# Sequences of proteins named here, by UniProt entry; tags and fusion partners are left off.
# UniProt Q99836: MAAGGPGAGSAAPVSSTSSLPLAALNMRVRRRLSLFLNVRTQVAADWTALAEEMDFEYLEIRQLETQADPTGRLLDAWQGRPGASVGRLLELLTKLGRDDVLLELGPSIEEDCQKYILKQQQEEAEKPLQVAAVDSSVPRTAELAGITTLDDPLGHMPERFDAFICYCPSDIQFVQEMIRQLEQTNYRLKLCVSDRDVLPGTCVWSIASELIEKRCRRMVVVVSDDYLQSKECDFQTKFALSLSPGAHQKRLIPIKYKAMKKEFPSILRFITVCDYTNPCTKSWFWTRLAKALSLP
# UniProt P22366: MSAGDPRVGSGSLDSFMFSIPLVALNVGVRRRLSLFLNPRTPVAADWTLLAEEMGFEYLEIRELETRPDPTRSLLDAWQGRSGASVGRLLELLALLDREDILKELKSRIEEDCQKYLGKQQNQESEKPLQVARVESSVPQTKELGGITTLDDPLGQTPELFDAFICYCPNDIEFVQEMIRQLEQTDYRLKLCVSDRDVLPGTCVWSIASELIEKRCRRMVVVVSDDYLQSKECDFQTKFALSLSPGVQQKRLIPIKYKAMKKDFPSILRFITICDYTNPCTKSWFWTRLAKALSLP
# These are yes or no findings as the source states them, for the method shown. Binding seen in cells or lysates may run through a third protein. Some results given as binding are weak or reduced against the parent protein; the word gives no strength. For some assays here: Sequences can lack the tags named with a protein.
# T1: TRAF3 (endogenous, mouse peritoneal macrophages) (mouse (endogenous in peritoneal macrophages)) (UniProt Q60803)
# T1 sequence: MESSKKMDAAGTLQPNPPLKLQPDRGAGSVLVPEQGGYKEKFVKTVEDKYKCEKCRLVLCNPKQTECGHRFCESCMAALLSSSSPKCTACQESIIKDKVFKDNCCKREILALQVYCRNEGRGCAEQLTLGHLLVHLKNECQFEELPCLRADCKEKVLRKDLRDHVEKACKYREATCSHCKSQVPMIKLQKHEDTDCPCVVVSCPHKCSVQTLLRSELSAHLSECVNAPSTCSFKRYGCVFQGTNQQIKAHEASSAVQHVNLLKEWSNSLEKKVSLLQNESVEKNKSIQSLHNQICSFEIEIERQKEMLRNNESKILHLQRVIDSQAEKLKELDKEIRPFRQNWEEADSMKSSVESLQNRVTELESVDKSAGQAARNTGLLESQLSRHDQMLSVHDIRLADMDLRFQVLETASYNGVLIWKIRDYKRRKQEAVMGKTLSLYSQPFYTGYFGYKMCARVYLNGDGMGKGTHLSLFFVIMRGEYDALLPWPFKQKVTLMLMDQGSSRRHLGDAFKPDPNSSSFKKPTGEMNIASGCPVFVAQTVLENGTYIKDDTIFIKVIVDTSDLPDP
# T2: Flag-OTUD5 (WT) (human) (UniProt Q96G74)
# T2 sequence: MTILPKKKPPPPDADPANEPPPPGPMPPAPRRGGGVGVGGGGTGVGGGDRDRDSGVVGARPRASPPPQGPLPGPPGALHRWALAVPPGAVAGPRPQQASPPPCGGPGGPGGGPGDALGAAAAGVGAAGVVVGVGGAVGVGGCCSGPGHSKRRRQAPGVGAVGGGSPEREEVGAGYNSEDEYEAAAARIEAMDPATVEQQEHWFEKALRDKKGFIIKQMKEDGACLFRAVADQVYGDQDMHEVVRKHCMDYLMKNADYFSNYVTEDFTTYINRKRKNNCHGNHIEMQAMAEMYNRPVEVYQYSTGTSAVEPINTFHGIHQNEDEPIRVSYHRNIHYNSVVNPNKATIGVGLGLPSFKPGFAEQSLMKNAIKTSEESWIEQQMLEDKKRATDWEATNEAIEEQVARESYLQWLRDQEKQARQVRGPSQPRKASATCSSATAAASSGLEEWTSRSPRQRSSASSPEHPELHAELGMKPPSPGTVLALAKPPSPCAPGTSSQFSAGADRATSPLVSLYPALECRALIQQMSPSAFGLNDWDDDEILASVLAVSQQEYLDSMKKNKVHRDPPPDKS
# B1: Flag-OTUD5 (WT) (enzyme, UniProt Q96G74 1-571)
# chain: T2 sequence
# B2: OTUD5 (endogenous, mouse peritoneal macrophages) (enzyme, UniProt Q3U2S4 1-566)
# chain: MTILPKKKPPPPDADPANEPPPPGPLPPAPRRGAGVGVGGGGTGVGGGERDRDSGVVGARPRASPPPQGPLPGPPGALHRWALAVPPGAVAGPRPQQASPPPCGGPGGPGGGPGDALGATTAGVGAAGVVVGVGGTVGVGGCCSGPGHSKRRRQAPGVGAVGGASPEREEVGAGYNSEDEYEAAAARIEAMDPATVEQQEHWFEKALRDKKGFIIKQMKEDGACLFRAVADQVYGDQDMHEVVRKHCMDYLMKNADYFSNYVTEDFTTYINRKRKNNCHGNHIEMQAMAEMYNRPVEVYQYSTEPINTFHGIHQNEDEPIRVSYHRNIHYNSVVNPNKATIGVGLGLPSFKPGFAEQSLMKNAIKTSEESWIEQQMLEDKKRATDWEATNEAIEEQVARESYLQWLRDQEKQARQVRGPSQPRKASATCSSATAAASSGLEEWTSRSPRQRSSASSPEHPELHAELGIKPPSPGTVLALAKPPSPCAPGTSSQFSAGGDRATSPLVSLYPALECRALIQQMSPSAFGLNDWDDDEILASVLAVSQQEYLDSMKKNKVHREPPPDKS
# B3: IRAK4 (endogenous, mouse peritoneal macrophages) (enzyme, UniProt Q8R4K2 1-459)
# chain: MNKPLTPSTYIRNLNVGILRKLSDFIDPQEGWKKLAVAIKKPSGDDRYNQFHIRRFEALLQTGKSPTCELLFDWGTTNCTVGDLVDLLVQIELFAPATLLLPDAVPQTVKSLPPREAATVAQTHGPCQEKDRTSVMPMPKLEHSCEPPDSSSPDNRSVESSDTRFHSFSFHELKSITNNFDEQPASAGGNRMGEGGFGVVYKGCVNNTIVAVKKLGAMVEISTEELKQQFDQEIKVMATCQHENLVELLGFSSDSDNLCLVYAYMPNGSLLDRLSCLDGTPPLSWHTRCKVAQGTANGIRFLHENHHIHRDIKSANILLDKDFTAKISDFGLARASARLAQTVMTSRIVGTTAYMAPEALRGEITPKSDIYSFGVVLLELITGLAAVDENREPQLLLDIKEEIEDEEKTIEDYTDEKMSDADPASVEAMYSAASQCLHEKKNRRPDIAKVQQLLQEMSA
# B4: IRAK2 (endogenous, mouse peritoneal macrophages) (enzyme, UniProt Q8CFA1 1-622)
# chain: MACYIYQLPSWVLDDLCRNIDTLSEWDWMQFASYVITDLTQLRKIKSMERVQGVSITRELLWWWSMRQATVQQLVDLLCHLELYRAAQIVLSWKPVPESTSPLPAFPEAVKPGAVATSRRNLKDEQEKVRPVKPRSLLDTGPIMAGAQRQRPCEMDAPCSLKTDAPDSPQSKYCSTSTSAPKQERLLGLPGDRLFWSEADVVQATEDFDQSHRISEGTFADIYQGQRNGVAFAFKKLREVAGSSPGSMDRFLQAEMQLCLRCCHANVLPLLGFCTGRQFHSLIYPYMANGSLHDRLWAQGNSDMLPWPQRASICSGLLLAVEHLHSLDIIHSNVKSANVLLDQHLNPKLAHPVAHPHPDNKKTKYTVMRTHLFQASAAYLPEHFIRVGQLTKQVDIFSCGIVLAEVLTGIPAMDKDRSPVYLKDLLLSEIPNSTSSVCSRKTSMGKAVVKEICQRHVEKRAGLLPEACEEAWATAVSVCLRRRNASVEEARVSLAGVEEQLRGQLSLPWSRVSEATGSSSNTPEETDDVDNSSLSVPSLVMMASCPGAASSPLFTGHGAAQPSTSGRQEADSSSEACTGPQTPQNATETSWKIEINEAKRRLMENIVLYKEERLDSSELFGP
# B5: Myc-TAK1 (enzyme, UniProt O43318 1-606)
# chain: MSTASAASSSSSSSAGEMIEAPSQVLNFEEIDYKEIEVEEVVGRGAFGVVCKAKWRAKDVAIKQIESESERKAFIVELRQLSRVNHPNIVKLYGACLNPVCLVMEYAEGGSLYNVLHGAEPLPYYTAAHAMSWCLQCSQGVAYLHSMQPKALIHRDLKPPNLLLVAGGTVLKICDFGTACDIQTHMTNNKGSAAWMAPEVFEGSNYSEKCDVFSWGIILWEVITRRKPFDEIGGPAFRIMWAVHNGTRPPLIKNLPKPIESLMTRCWSKDPSQRPSMEEIVKIMTHLMRYFPGADEPLQYPCQYSDEGQSNSATSTGSFMDIASTNTSNKSDTNMEQVPATNDTIKRLESKLLKNQAKQQSESGRLSLGASRGSSVESLPPTSEGKRMSADMSEIEARIAATTAYSKPKRGHRKTASFGNILDVPEIVISGNGQPRRRSIQDLTVTGTEPGQVSSRSSSPSVRMITTSGPTSEKPTRSHPWTPDDSTDTNGSDNSIPMAYLTLDHQLQPLAPCPNSKESMAVFEQHCKMAQEYMKVQTEIALLLQRKQELVAELDQDEKDQQNTSRLVQEHKKLLDENKSLSTYYQQCKKQLEVIRSQQQKRQGTS
# B6: Myc-IKKβ (enzyme, UniProt O14920 1-756)
# chain: MSWSPSLTTQTCGAWEMKERLGTGGFGNVIRWHNQETGEQIAIKQCRQELSPRNRERWCLEIQIMRRLTHPNVVAARDVPEGMQNLAPNDLPLLAMEYCQGGDLRKYLNQFENCCGLREGAILTLLSDIASALRYLHENRIIHRDLKPENIVLQQGEQRLIHKIIDLGYAKELDQGSLCTSFVGTLQYLAPELLEQQKYTVTVDYWSFGTLAFECITGFRPFLPNWQPVQWHSKVRQKSEVDIVVSEDLNGTVKFSSSLPYPNNLNSVLAERLEKWLQLMLMWHPRQRGTDPTYGPNGCFKALDDILNLKLVHILNMVTGTIHTYPVTEDESLQSLKARIQQDTGIPEEDQELLQEAGLALIPDKPATQCISDGKLNEGHTLDMDLVFLFDNSKITYETQISPRPQPESVSCILQEPKRNLAFFQLRKVWGQVWHSIQTLKEDCNRLQQGQRAAMMNLLRNNSCLSKMKNSMASMSQQLKAKLDFFKTSIQIDLEKYSEQTEFGITSDKLLLAWREMEQAVELCGRENEVKLLVERMMALQTDIVDLQRSPMGRKQGGTLDDLEEQARELYRRLREKPRDQRTEGDSQEMVRLLLQAIQSFEKKVRVIYTQLSKTVVCKQKALELLPKVEEVVSLMNEDEKTVVRLQEKRQKELWNLLKIACSKVRGPVSGSPDSMNASRLSQPGQLMSQPSTASNSLPEPAKKSEELVAEAHNLCTLLENAIQDTVREQDQSFTALDWSWLQTEEEEHSCLEQAS
# B7: Flag-OTUD5 (amino acids 1-360) (domain or fragment, UniProt Q96G74 1-360)
# chain: MTILPKKKPPPPDADPANEPPPPGPMPPAPRRGGGVGVGGGGTGVGGGDRDRDSGVVGARPRASPPPQGPLPGPPGALHRWALAVPPGAVAGPRPQQASPPPCGGPGGPGGGPGDALGAAAAGVGAAGVVVGVGGAVGVGGCCSGPGHSKRRRQAPGVGAVGGGSPEREEVGAGYNSEDEYEAAAARIEAMDPATVEQQEHWFEKALRDKKGFIIKQMKEDGACLFRAVADQVYGDQDMHEVVRKHCMDYLMKNADYFSNYVTEDFTTYINRKRKNNCHGNHIEMQAMAEMYNRPVEVYQYSTGTSAVEPINTFHGIHQNEDEPIRVSYHRNIHYNSVVNPNKATIGVGLGLPSFKPGFA
# Columns and labels:
# Myc-MyD88 (WT) (human) = Myc-MyD88 (WT) (human) (UniProt Q99836); assay: co-IP; HEK293T cells co-transfected with tagged plasmids; IP buffer 1% NP-40, 150 mM NaCl, 10 mM Tris-HCl pH 7.4, 1 mM EDTA; antibody with Protein A/G PLUS Agarose overnight; immunoblot
# [1] = biological target: T1, TRAF3 (endogenous, mouse peritoneal macrophages) (mouse (endogenous in peritoneal macrophages)); assay: co-IP; endogenous proteins in lysates of mouse peritoneal macrophages (WT and Otud5 CKO), LPS 100 ng/mL for various times; IP buffer 1% NP-40, 150 mM NaCl, 10 mM Tris-HCl pH 7.4, 1 mM EDTA; immunoblot
# [2] = biological target: MyD88 (endogenous, mouse peritoneal macrophages) (mouse (endogenous in peritoneal macrophages)) (UniProt P22366); assay: as above
# Flag-OTUD5 (WT) (human) = biological target: T2, Flag-OTUD5 (WT) (human); assay: co-IP; HEK293T cells co-transfected with tagged plasmids; IP buffer 1% NP-40, 150 mM NaCl, 10 mM Tris-HCl pH 7.4, 1 mM EDTA; antibody with Protein A/G PLUS Agarose overnight; immunoblot
binder,measurement,setting,value
B1,binding,Myc-MyD88 (WT) (human),binds
B2,binding,[1],binds
same,binding,[2],binds
B3,binding,[2],binds
B4,binding,[2],binds
B5,binding,Flag-OTUD5 (WT) (human),no binding
B6,binding,Flag-OTUD5 (WT) (human),no binding
B7,binding,Myc-MyD88 (WT) (human),no binding
